The other results are listed elsewhere or left out.

The test concerns PF3D7_0420300 AP2 domain 1 (GST-tagged). Put plainly: gcPBM binding intensity (ln(normalized median fluorescence intensity)); higher = stronger DNA binding. A digest of the protocol: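 An Agilent 4 × 180k array carrying primer-extended double-stranded 36-bp intergenic genomic probes and negative controls received GST-tagged P. falciparum DNA-binding domains expressed in E. coli, about 25 μg on average, for 1 h. The binding buffer contained 1× PBS, 1% milk, 0.2 mg/ml BSA, 0.5% salmon testes DNA and 0.03% Triton X-100. Binding intensity is the top Masliner-normalised natural-log median intensity across replicate spots of either probe orientation, read after Alexa488 anti-GST antibody staining and a 488 nm scan.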
Consider “ATATATACATATATATGTACGTATATTTTTATTTCT [XGTACX_site6198]”, for which the “gcPBM binding intensity (ln)” value amounted to 9.49.

As for “TATAAACCCACCTACACACACAACGTAAATGCATTG [CACACA_site2238]”, the “gcPBM binding intensity (ln)” value was found to be 9.84.

For the sequence “ATTTAACAACTTCAAACACACAATATAGATTTATAT [CACACA_site7067]”, the “gcPBM binding intensity (ln)” value stood at 9.48.

As to “CGTTTATATAGTGATGCATGCATTGTTAACATGGTT [TGCATGCA_site418]”, the “gcPBM binding intensity (ln)” value turned out to be 9.33.

In the case of “TTTATACACAAAAAATGTACATATATATAATGAATT [XGTACX_site1195]”, the “gcPBM binding intensity (ln)” value came out at 9.22.

“TGTATGTCTTTATTTTGTACACAATATAAAAAATTA [XGTACX_site5441]”: the “gcPBM binding intensity (ln)” value was determined as 9.04.

Turning to “CGCACAAAAATATACACACACACATATATATTTATT [CACACA_site3645]”, the “gcPBM binding intensity (ln)” value stood at 10.2.

Regarding “TATTCAACATAATATGCACACAAAAATTATGGAACG [CACACA_site8660]”, the “gcPBM binding intensity (ln)” value was 9.6.

Turning to “TTTAATTTTTTTTAAACACACACATTACATTCAAAA [CACACA_site7926]”, the “gcPBM binding intensity (ln)” value was 9.33.

In the case of “AATATATAATTTTATAGTACATAATAAAAGAACAGG [XGTACX_site724]”, the “gcPBM binding intensity (ln)” value was 9.47.

As to “TTATATTATGCTTGAATGCACTTTGAAGCACAATCT [GTGCAC_site9789]”, the “gcPBM binding intensity (ln)” value turned out to be 9.03.

As to “ATCACATAAAATATGAATATATATTTTATATATATA [CACACA_negctrl_site340]”, the “gcPBM binding intensity (ln)” value came to 9.08.

Turning to “TTAAAAAAAAAAAGGTGTACTATAATTTAATATCAC [XGTACX_site6316]”, the “gcPBM binding intensity (ln)” value was found to be 9.28.

On to “TATATTTACGTATGTCGAACGTTATTTTGAACAACC [CACACA_negctrl_site1261]”, for which the “gcPBM binding intensity (ln)” value amounted to 9.21.

Regarding “TTTTTTTATTAAAAATGTACAAAAATGAAAAAATAA [XGTACX_site8279]”, the “gcPBM binding intensity (ln)” value was found to be 8.99.

Consider CATATAATTTTATGGGTGCATTTTTTTGTAAGACCA, for which the “gcPBM binding intensity (ln)” value is 9.16.

With “TTTTAAACAAAAATTTGTACACAATAATTAAATATA [XGTACX_site6755]”, the “gcPBM binding intensity (ln)” value was determined as 9.01.

On to “ATTTAATTTTTTTTTTTTTTTTTTCAATCCCCTTTT [CACACA_negctrl_site1013]”, for which the “gcPBM binding intensity (ln)” value was 8.91.

With “CATTTTAAAGAAAATACACACAAAAATAAATATATA [CACACA_site1395]”, the “gcPBM binding intensity (ln)” value worked out at 9.54.

Turning to “ACACAAAAAATAAAAATATATATATATTATATATAT [CACACA_negctrl_site1489]”, the “gcPBM binding intensity (ln)” value was found to be 9.24.

Turning to “TAATAATAAATTGGTTGTACAACCTTATACAGAATA [XGTACX_site2592]”, the “gcPBM binding intensity (ln)” value was found to be 9.17.

In the case of “TAAAAAAATATATATACATGCATAGAAAAAAAAAAA [TGCATGCA_site552]”, the “gcPBM binding intensity (ln)” value turned out to be 9.33.

As to TTACTTTTAACAAATGTGCGCAGTTATCACACAGAC, the “gcPBM binding intensity (ln)” value was 9.23.

With “TATATTTTGTTCTGTTGTACTAAAAAAATCTTTATA [XGTACX_site8372]”, the “gcPBM binding intensity (ln)” value was determined as 9.12.

In the case of “ACAAAACAAAAAAACTCACACATATACGGCATGTCA [CACACA_site5608]”, the “gcPBM binding intensity (ln)” value is 9.79.

For “ATTTATTTATTTATATGTACATATTTAAAGAGTTCA [XGTACX_site7631]”, the “gcPBM binding intensity (ln)” value is 9.08.

With “ATATATATATATATATGTACTAAGAATTCTTTAAAA [XGTACX_site8476]”, the “gcPBM binding intensity (ln)” value was 9.14.

“TATACATATGAAAATACACACATACATACATATATA [CACACA_site8484]”: the “gcPBM binding intensity (ln)” value was determined as 9.85.

As to ATTATACATATATAAGTGCAATAATGTTTTTTCCTT, the “gcPBM binding intensity (ln)” value was determined as 9.36.

Take “AAGGTATATATAACTACACACTTATATATAATCTAA [CACACA_site92]”: the “gcPBM binding intensity (ln)” value came out at 9.45.

With “ATTTTCCAAAATAATTGTACAGGAAAGAAATAATTA [XGTACX_site7424]”, the “gcPBM binding intensity (ln)” value was 9.18.

Consider “AACAGACAGAAACACACACACATATATATATATATA [CACACA_site3394]”, for which the “gcPBM binding intensity (ln)” value was 9.81.

As for “TAATAAAATATGTACACACATACACCCATATATATA [CACACA_site1220]”, the “gcPBM binding intensity (ln)” value came out at 9.71.

For the sequence “TGTAGTCTGGAGAAAAGTACATAGTATCTGGTAACC [XGTACX_site2025]”, the “gcPBM binding intensity (ln)” value worked out at 9.19.

As for “AGGAACAAAATATACTGTACTTTATTATTTTCAAAA [XGTACX_site4421]”, the “gcPBM binding intensity (ln)” value was 9.17.

In the case of “ATACATATTTTACATTCACACAACAAATTTATATTT [CACACA_site4700]”, the “gcPBM binding intensity (ln)” value was found to be 9.34.

Regarding “ATATATTTTAATTGATGTACTTTTTTATGTTAATGA [XGTACX_site4316]”, the “gcPBM binding intensity (ln)” value came out at 9.1.

For the sequence “TGGGTAAACAGACACACACACATATAGATTTATATA [CACACA_site7026]”, the “gcPBM binding intensity (ln)” value came to 9.9.

“ACACACATATATACATGTACATATATATATATATAT [XGTACX_site451]”: the “gcPBM binding intensity (ln)” value turned out to be 9.56.

As to “CTTCCAATAAAAAATGCACACATTGAAAATATTGAA [CACACA_site2688]”, the “gcPBM binding intensity (ln)” value amounted to 9.29.

“AAATTATATGAACATTGTACTTTATATATGTAAGAA [XGTACX_site1611]”: the “gcPBM binding intensity (ln)” value stood at 9.11.

On to “TATTTTGTTCTTTCCACACACAAATACAGATATTGT [CACACA_site6097]”, for which the “gcPBM binding intensity (ln)” value came to 9.74.

As for “ATTTGTATATATTAATGTACACACATGCGTATGTTC [XGTACX_site7579]”, the “gcPBM binding intensity (ln)” value was 9.61.

Take “TCTTATCCATATATTACACACTATAAATAGAAATTA [CACACA_site6274]”: the “gcPBM binding intensity (ln)” value amounted to 9.16.

“ACACATAATATGTGTAGTACTTTTTCTTTAACATTA [XGTACX_site1436]”: the “gcPBM binding intensity (ln)” value was 9.28.

With “TATAAATATAAATATACACACATATATTTATTTATA [CACACA_site6890]”, the “gcPBM binding intensity (ln)” value was 9.34.

On to “AACAGTAACATTGAATGTACTTAATTTTAAGAAAAT [XGTACX_site2971]”, for which the “gcPBM binding intensity (ln)” value came to 9.13.

As for “ATTTATTGACTATTTACACACATATTTATTATAATA [CACACA_site1624]”, the “gcPBM binding intensity (ln)” value came to 9.69.

Turning to “TTAAAATAAAGAAAATGTACATAAATTAAAATAAAG [XGTACX_site2281]”, the “gcPBM binding intensity (ln)” value amounted to 9.32.

On to “TTTTTTTTTTTTTTTATAGTACATTACCAAAAAAAA [CACACA_negctrl_site1197]”, for which the “gcPBM binding intensity (ln)” value came to 8.5.

Turning to “GTCGTATAATTTTCAGTGCAATATTTGAATAAATGG [GTGCAC_site9404]”, the “gcPBM binding intensity (ln)” value was 9.35.

On to “ATTTATTAATTACCATGTATAAAAAATTATATAATA [CACACA_negctrl_site581]”, for which the “gcPBM binding intensity (ln)” value was 8.93.

As to “ATACAATACAAAAACACACACAAAAAAAGAAAAGGA [CACACA_site2156]”, the “gcPBM binding intensity (ln)” value stood at 10.1.

As for “AGCAACTCAATATATATAAGAATTGTAATATAATAT [GTGCAC_negctrl_site429]”, the “gcPBM binding intensity (ln)” value came out at 9.21.

In the case of “ATATATTTATATATTTGTACATATAATATCTTCTTT [XGTACX_site8504]”, the “gcPBM binding intensity (ln)” value was 9.24.

Regarding “TTTATTTTATTTTCATGTACAAAAGGGGAATAATAA [XGTACX_site2704]”, the “gcPBM binding intensity (ln)” value came out at 8.97.

As for “GATTTATACAAATATGTACACACTAAATATATATTA [CACACA_site455]”, the “gcPBM binding intensity (ln)” value was determined as 9.43.

The record behind these values is the supplement of paper PMC11417369.
